# Measured values published in PMC5700166.
# The list shows a part of the results, in another mix than the full data. The list includes weakly bound sequences.
# Key:
# [1] = biological target: T1, GST-Ap-NF-kB RHD (UniProt A0A913YAJ5); test: protein-binding microarray (PBM); conditions: PBM: ~300 nM protein, 6 mM HEPES pH 7.8, 80 mM KCl, 0.5 mM EDTA, 0.5 mM EGTA, 6% glycerol, 35 ng/ul poly-dIdC, 1% milk, 1 h, room temperature; high values mean tight binding; double strand, one strand shown
# T1 sequence: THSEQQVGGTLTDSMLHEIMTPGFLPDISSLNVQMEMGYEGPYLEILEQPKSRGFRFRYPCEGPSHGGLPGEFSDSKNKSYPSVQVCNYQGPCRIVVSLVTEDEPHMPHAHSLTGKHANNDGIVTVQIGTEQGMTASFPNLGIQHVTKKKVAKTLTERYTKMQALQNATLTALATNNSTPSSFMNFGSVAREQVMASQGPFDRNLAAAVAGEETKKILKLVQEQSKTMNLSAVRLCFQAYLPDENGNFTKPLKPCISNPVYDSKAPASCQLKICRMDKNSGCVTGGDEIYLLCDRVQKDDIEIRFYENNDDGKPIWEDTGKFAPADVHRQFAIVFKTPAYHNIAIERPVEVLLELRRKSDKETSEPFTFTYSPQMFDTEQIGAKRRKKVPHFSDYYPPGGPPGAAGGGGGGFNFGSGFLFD
# [2] = biological target: T2, GST-Nv-NF-kB (Cys allele) (UniProt E5G601); test: protein-binding microarray (PBM); conditions: PBM: ~300 nM protein, 6 mM HEPES pH 7.8, 80 mM KCl, 0.5 mM EDTA, 0.5 mM EGTA, 6% glycerol, 35 ng/ul poly-dIdC, 1% milk, 1 h, room temperature; Ap Aiptasia and Nv Nematostella (sea anemones) / Co Capsaspora / Aq Amphimedon (sponge) / Dm Drosophila / Hu human; RHD is the Rel homology domain; high values mean tight binding; most listed sequences are background and not binding sites; double strand, one strand shown
# T2 sequence: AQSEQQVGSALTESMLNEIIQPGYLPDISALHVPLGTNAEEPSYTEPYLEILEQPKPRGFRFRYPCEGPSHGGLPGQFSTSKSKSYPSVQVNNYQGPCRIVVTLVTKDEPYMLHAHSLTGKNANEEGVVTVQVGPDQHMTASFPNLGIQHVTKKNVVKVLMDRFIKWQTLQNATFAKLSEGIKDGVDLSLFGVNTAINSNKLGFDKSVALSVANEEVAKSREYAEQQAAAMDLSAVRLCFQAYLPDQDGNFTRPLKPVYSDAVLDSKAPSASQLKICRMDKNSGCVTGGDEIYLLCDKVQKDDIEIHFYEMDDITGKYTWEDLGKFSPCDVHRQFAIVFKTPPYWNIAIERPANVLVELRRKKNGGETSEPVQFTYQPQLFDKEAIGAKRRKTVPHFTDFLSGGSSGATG
Sequence,binding signal [1],binding signal [2]
CCGATTAACATCAACACCCCCCTTGATGTTAATCGGGTCTTGATTCGCTTGACGCTGCTG,4.56 z-score,
CCGATTAACATCAGGGGAGAACCTGATGTTAATCGGGTCTTGATTCGCTTGACGCTGCTG,6.35 z-score,
CCGATTAACATCAGGATTCCCCATGATGTTAATCGGGTCTTGATTCGCTTGACGCTGCTG,9.56 z-score,
CCGATTAACATCACCGTTTTCCCTGATGTTAATCGGGTCTTGATTCGCTTGACGCTGCTG,3.62 z-score,
CCGATTAACATCAAAGAATCCCCTGATGTTAATCGGGTCTTGATTCGCTTGACGCTGCTG,8.71 z-score,
CCGATTAACATCAGGGGTACCCCTGATGTTAATCGGGTCTTGATTCGCTTGACGCTGCTG,7.75 z-score,
CCGATTAACATCAGGGGGAACTATGATGTTAATCGGGTCTTGATTCGCTTGACGCTGCTG,6.91 z-score,
CCGATTAACATCAAGGGGGGGAGTGATGTTAATCGGGTCTTGATTCGCTTGACGCTGCTG,4.51 z-score,
CCGATTAACATCAAATAGGGAATTGATGTTAATCGGGTCTTGATTCGCTTGACGCTGCTG,2.29 z-score,
CCGATTAACATCATAAATCCCCATGATGTTAATCGGGTCTTGATTCGCTTGACGCTGCTG,6.78 z-score,
CCGATTAACATCACAGAAATCCCTGATGTTAATCGGGTCTTGATTCGCTTGACGCTGCTG,4.33 z-score,
CCGATTAACATCAATAATCCCCCTGATGTTAATCGGGTCTTGATTCGCTTGACGCTGCTG,8.84 z-score,
CCGATTAACATCAATTTCCCATATGATGTTAATCGGGTCTTGATTCGCTTGACGCTGCTG,1.56 z-score,
CCGATTAACATCAGGGGAGGTTATGATGTTAATCGGGTCTTGATTCGCTTGACGCTGCTG,4.62 z-score,
CCGATTAACATCACGGATTCCCCTGATGTTAATCGGGTCTTGATTCGCTTGACGCTGCTG,8.74 z-score,
CCGATTAACATCAAGATTCCCCTTGATGTTAATCGGGTCTTGATTCGCTTGACGCTGCTG,7.59 z-score,
CCGATTAACATCACATATTTCCCTGATGTTAATCGGGTCTTGATTCGCTTGACGCTGCTG,3.32 z-score,
CCGATTAACATCAGGGTAATACCTGATGTTAATCGGGTCTTGATTCGCTTGACGCTGCTG,4.26 z-score,
CCGATTAACATCAGGGGGGGGAATGATGTTAATCGGGTCTTGATTCGCTTGACGCTGCTG,7.86 z-score,
CCGATTAACATCACAAACTCCCCTGATGTTAATCGGGTCTTGATTCGCTTGACGCTGCTG,7.26 z-score,
CCGATTAACATCAGGGGCGTTTATGATGTTAATCGGGTCTTGATTCGCTTGACGCTGCTG,3.36 z-score,
CCGATTAACATCAGGGGAAGATATGATGTTAATCGGGTCTTGATTCGCTTGACGCTGCTG,6.06 z-score,
CCGATTAACATCAATTTTTCCCATGATGTTAATCGGGTCTTGATTCGCTTGACGCTGCTG,2.62 z-score,
CCGATTAACATCAGGGGGGAGTATGATGTTAATCGGGTCTTGATTCGCTTGACGCTGCTG,6.07 z-score,

Sequence,binding signal [1],binding signal [2]
CCGATTAACATCAAACAGTCCCCTGATGTTAATCGGGTCTTGATTCGCTTGACGCTGCTG,5.58 z-score,
CCGATTAACATCAAGGGGGAAACTGATGTTAATCGGGTCTTGATTCGCTTGACGCTGCTG,7.59 z-score,
CCGATTAACATCAAAAAATCCCATGATGTTAATCGGGTCTTGATTCGCTTGACGCTGCTG,4.84 z-score,
CCGATTAACATCACCCCCCCCCGTGATGTTAATCGGGTCTTGATTCGCTTGACGCTGCTG,7.33 z-score,
CCGATTAACATCAGGGAATATAATGATGTTAATCGGGTCTTGATTCGCTTGACGCTGCTG,3.2 z-score,
CCGATTAACATCAAAATACCCCTTGATGTTAATCGGGTCTTGATTCGCTTGACGCTGCTG,6.2 z-score,
CCGATTAACATCAGCCCGGGAAATGATGTTAATCGGGTCTTGATTCGCTTGACGCTGCTG,2.45 z-score,
CCGATTAACATCACTTTCCCCCCTGATGTTAATCGGGTCTTGATTCGCTTGACGCTGCTG,5.84 z-score,
CCGATTAACATCACGGCTTTCCCTGATGTTAATCGGGTCTTGATTCGCTTGACGCTGCTG,2.31 z-score,
CCGATTAACATCAGGGAAACCCATGATGTTAATCGGGTCTTGATTCGCTTGACGCTGCTG,3.64 z-score,
CCGATTAACATCAGGGAAAGCACTGATGTTAATCGGGTCTTGATTCGCTTGACGCTGCTG,3.61 z-score,
CCGATTAACATCAAATTCCCAGATGATGTTAATCGGGTCTTGATTCGCTTGACGCTGCTG,2.43 z-score,
CCGATTAACATCAAGGGGGGAGGTGATGTTAATCGGGTCTTGATTCGCTTGACGCTGCTG,4.12 z-score,
CCGATTAACATCACATTGTCCCCTGATGTTAATCGGGTCTTGATTCGCTTGACGCTGCTG,4.03 z-score,4.18 z-score
CCGATTAACATCAGGGGGTAACATGATGTTAATCGGGTCTTGATTCGCTTGACGCTGCTG,4.79 z-score,3.69 z-score
CCGATTAACATCAGGACGTCCCCTGATGTTAATCGGGTCTTGATTCGCTTGACGCTGCTG,7.08 z-score,6.03 z-score
CCGATTAACATCACGGAAATTTCTGATGTTAATCGGGTCTTGATTCGCTTGACGCTGCTG,0.81 z-score,1 z-score
CCGATTAACATCAGGGAATTAAATGATGTTAATCGGGTCTTGATTCGCTTGACGCTGCTG,2.06 z-score,4.46 z-score
CCGATTAACATCAAAATTCCCTGTGATGTTAATCGGGTCTTGATTCGCTTGACGCTGCTG,4.81 z-score,6.86 z-score
CCGATTAACATCACAAATTCCCCTGATGTTAATCGGGTCTTGATTCGCTTGACGCTGCTG,9.44 z-score,10.9 z-score
CCGATTAACATCAGGGGGTTACATGATGTTAATCGGGTCTTGATTCGCTTGACGCTGCTG,6.46 z-score,4.25 z-score
CCGATTAACATCAGGGAAATAAATGATGTTAATCGGGTCTTGATTCGCTTGACGCTGCTG,2.39 z-score,4.44 z-score
CCGATTAACATCAGGGGGATCACTGATGTTAATCGGGTCTTGATTCGCTTGACGCTGCTG,5.55 z-score,4.61 z-score
CCGATTAACATCAACGGATTCCCTGATGTTAATCGGGTCTTGATTCGCTTGACGCTGCTG,2.31 z-score,3.57 z-score
